According to publication PMC5892938:
This is one part of the list. At the low end of the ranking, values are background and their order means little.

What follows are sequences tested against GST-SBP-SLBP (stem-loop binding protein) (UniProt Q14493) (assay: targeted RNA Bind-n-Seq). Conditions: RBNS binding buffer: 25 mM Tris pH 7.5, 150 mM KCl, 3 mM MgCl2, 0.1% Tween, 0.5 mg/mL BSA, 1 mM DTT; 27 nM protein, 750 pM RNA pool; temperature not stated; high values mean tight binding.
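Note: DESeq read counts versus GST-SBP nonspecific binding control pulldown.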

Sequence | binding signal (log2 fold change)
GGUCACGUCUCAAUCAACUCUCUAGAGGGGGGGAAAACCCCUUUGCCCUCAAUUUCAACAGCUCGCAGUCAAG | -0.198
GGUCACGUCUCAAUCAACUCACAAGAGGGGGGGAAAACCCCUUUACCCUCCCAAUCAACAGCUCGCAGUCAAG | 0.187
GGUCACGUCUCAAUCAACUCUUCCGCAGGAGUUUUCUCCUGGUAUUUCAACAGCUCGCAGUCAAG | 0.0226
GGUCACGUCUCAAUCAACUCAUCUCCAGGAGUUUUCUCCUGCUAACUCAACAGCUCGCAGUCAAG | -0.0801
GGUCACGUCUCAAUCAACUCAUUCUCAGGAGUUUCCUCCUGCAAUCUCAACAGCUCGCAGUCAAG | 0.00191
GGUCACGUCUCAAUCAACUCAGUUUCAGGAGUUUCCUCCUGUAUAUUCAACAGCUCGCAGUCAAG | 0.105
GGUCACGUCUCAAUCAACUCAUUUCCCAGGGAAAGCCCUGGCAUAUUCAACAGCUCGCAGUCAAG | 0.154
GGUCACGUCUCAAUCAACUCUACUUCCAGGGAAAGCCCUGGCAAUUUCAACAGCUCGCAGUCAAG | 0.164
GGUCACGUCUCAAUCAACUCAUCCCCAGGAGUUUACUCCUGUUUAUUCAACAGCUCGCAGUCAAG | 0.16
GGUCACGUCUCAAUCAACUCUACUCCCAGGGAAAGCCCUGGCUUAUUCAACAGCUCGCAGUCAAG | 0.0337
GGUCACGUCUCAAUCAACUCAUCUUCCAGGGAAAUCCCUGGUAUACUCAACAGCUCGCAGUCAAG | 0.0231
GGUCACGUCUCAAUCAACUCAUCUUCAGGAGUUUGCUCCUGUUAAUUCAACAGCUCGCAGUCAAG | -0.0375
GGUCACGUCUCAAUCAACUCAACUCCAGGAGUUUUCUCCUGUAAUCUCAACAGCUCGCAGUCAAG | -0.121
GGUCACGUCUCAAUCAACUCUUUCUCCAGGGAAACCCCUGGUUAAUUCAACAGCUCGCAGUCAAG | -0.1
GGUCACGUCUCAAUCAACUCCUUCGAGGGGGGGAAAACCCCUUUACCCUCAUAUUCAACAGCUCGCAGUCAAG | -0.137
GGUCACGUCUCAAUCAACUCAUUCCCAGGAGUUUUCUCCUGUAAAUUCAACAGCUCGCAGUCAAG | 0.0352
GGUCACGUCUCAAUCAACUCCAAAGAGGGGGGGAAAACCCCUUUGCCCUCAAUUUCAACAGCUCGCAGUCAAG | -0.00323
GGUCACGUCUCAAUCAACUCAUUUUCCAGGGAAAGCCCUGGCAUAUUCAACAGCUCGCAGUCAAG | -0.107
GGUCACGUCUCAAUCAACUCAUUCUCAGGAGUUUACUCCUGCUUUUUCAACAGCUCGCAGUCAAG | -0.0164
GGUCACGUCUCAAUCAACUCUAACGAGGGGGGGAAAACCCCUUUGCCCUCAACAUCAACAGCUCGCAGUCAAG | -0.294
GGUCACGUCUCAAUCAACUCAUCCUCAGGAGUUUACUCCUGUUAAUUCAACAGCUCGCAGUCAAG | -0.0609
GGUCACGUCUCAAUCAACUCAUUUUCAGGAGUUUACUCCUGUAAUUUCAACAGCUCGCAGUCAAG | -0.155
GGUCACGUCUCAAUCAACUCAAUCUCCAGGGAAAUCCCUGGUUAAUUCAACAGCUCGCAGUCAAG | 0.348
GGUCACGUCUCAAUCAACUCAAUCCCCAGGGAAAACCCUGGCAUAUUCAACAGCUCGCAGUCAAG | 0.106

Sequence | binding signal (log2 fold change)
GGUCACGUCUCAAUCAACUCUUUCCCAGGAGUUUUCUCCUGUUUUCUCAACAGCUCGCAGUCAAG | -0.0388
GGUCACGUCUCAAUCAACUCAAUCCCCAGGGAAACCCCUGGUAAACUCAACAGCUCGCAGUCAAG | -0.162
GGUCACGUCUCAAUCAACUCAUCAGAGGGGGGGAAAACCCCUUUACCCUCAACCUCAACAGCUCGCAGUCAAG | -0.287
GGUCACGUCUCAAUCAACUCUAUCCCCAGGGAAAACCCUGGUAAACUCAACAGCUCGCAGUCAAG | 0.0123
GGUCACGUCUCAAUCAACUCUAUUUCCAGGGAAAUCCCUGGCAUACUCAACAGCUCGCAGUCAAG | -0.064
GGUCACGUCUCAAUCAACUCAUACGAGGGGGGGAAAACCCCUUUACCCUCAAAUUCAACAGCUCGCAGUCAAG | 0.598
GGUCACGUCUCAAUCAACUCUAUCUCCAGGGAAAACCCUGGUUAACUCAACAGCUCGCAGUCAAG | 0.251
GGUCACGUCUCAAUCAACUCUUCCCCAGGAGUUUCCUCCUGUAAUGUCAACAGCUCGCAGUCAAG | -0.0497
GGUCACGUCUCAAUCAACUCUUUCCCCAGGGAAAUCCCUGGUAAACUCAACAGCUCGCAGUCAAG | 0.16
GGUCACGUCUCAAUCAACUCAUCUUCAGGAGUUUACUCCUGCAUUCUCAACAGCUCGCAGUCAAG | 0.175
GGUCACGUCUCAAUCAACUCAGUUCCAGGAGUUUUCUCCUGCUUUCUCAACAGCUCGCAGUCAAG | -0.0446
GGUCACGUCUCAAUCAACUCAUUCCCCAGGGAAAACCCUGGCAAACUCAACAGCUCGCAGUCAAG | 0.0758
GGUCACGUCUCAAUCAACUCCAACGAGGGGGGGAAAACCCCUUUACCCUCCAAUUCAACAGCUCGCAGUCAAG | -0.07
GGUCACGUCUCAAUCAACUCUUCCCCAGGAGUUUACUCCUGUAUACUCAACAGCUCGCAGUCAAG | 0.114
GGUCACGUCUCAAUCAACUCAAAAGAGGGGGGGAAAACCCCUUUACCCUCCAUUUCAACAGCUCGCAGUCAAG | 0.0289
GGUCACGUCUCAAUCAACUCUAUCGCAGGAGUUUACUCCUGGUUUUUCAACAGCUCGCAGUCAAG | -0.00203
GGUCACGUCUCAAUCAACUCAGUCUCCAGGGAAAGCCCUGGCUUAUUCAACAGCUCGCAGUCAAG | -0.0508
GGUCACGUCUCAAUCAACUCUACGGCAGGAGUUUUCUCCUGGAUAUUCAACAGCUCGCAGUCAAG | 0.0793
GGUCACGUCUCAAUCAACUCAACAGAGGGGGGGAAAACCCCUUUACCCUCAUACUCAACAGCUCGCAGUCAAG | -0.18
GGUCACGUCUCAAUCAACUCUCCAGAGGGGGGGAAAACCCCUUUACCCUCAUUCUCAACAGCUCGCAGUCAAG | -0.0688
GGUCACGUCUCAAUCAACUCUUCCUCCAGGGAAAUCCCUGGUAAACUCAACAGCUCGCAGUCAAG | -0.188
GGUCACGUCUCAAUCAACUCAUUUCCAGGAGUUUACUCCUGUAUACUCAACAGCUCGCAGUCAAG | 0.00949
GGUCACGUCUCAAUCAACUCUAUUCCAGGAGUUUCCUCCUGCUAUCUCAACAGCUCGCAGUCAAG | 0.246
